Paper PMC4336329 (PLoS ONE, 2015)
Screen size: about 310,000 compounds; about 2,200 (0.71%) showed an effect of 50% or more. The effect is printed as a negative number. The list shows a part of the results.

Each compound was assayed against human ether-à-go-go-related gene (hERG) potassium channel (human, UniProt Q12809) (assay: primary screen, population patch clamp on CHO cells stably expressing hERG).
Sequence of human ether-à-go-go-related gene (hERG) potassium channel (Q12809 whole entry, looked up): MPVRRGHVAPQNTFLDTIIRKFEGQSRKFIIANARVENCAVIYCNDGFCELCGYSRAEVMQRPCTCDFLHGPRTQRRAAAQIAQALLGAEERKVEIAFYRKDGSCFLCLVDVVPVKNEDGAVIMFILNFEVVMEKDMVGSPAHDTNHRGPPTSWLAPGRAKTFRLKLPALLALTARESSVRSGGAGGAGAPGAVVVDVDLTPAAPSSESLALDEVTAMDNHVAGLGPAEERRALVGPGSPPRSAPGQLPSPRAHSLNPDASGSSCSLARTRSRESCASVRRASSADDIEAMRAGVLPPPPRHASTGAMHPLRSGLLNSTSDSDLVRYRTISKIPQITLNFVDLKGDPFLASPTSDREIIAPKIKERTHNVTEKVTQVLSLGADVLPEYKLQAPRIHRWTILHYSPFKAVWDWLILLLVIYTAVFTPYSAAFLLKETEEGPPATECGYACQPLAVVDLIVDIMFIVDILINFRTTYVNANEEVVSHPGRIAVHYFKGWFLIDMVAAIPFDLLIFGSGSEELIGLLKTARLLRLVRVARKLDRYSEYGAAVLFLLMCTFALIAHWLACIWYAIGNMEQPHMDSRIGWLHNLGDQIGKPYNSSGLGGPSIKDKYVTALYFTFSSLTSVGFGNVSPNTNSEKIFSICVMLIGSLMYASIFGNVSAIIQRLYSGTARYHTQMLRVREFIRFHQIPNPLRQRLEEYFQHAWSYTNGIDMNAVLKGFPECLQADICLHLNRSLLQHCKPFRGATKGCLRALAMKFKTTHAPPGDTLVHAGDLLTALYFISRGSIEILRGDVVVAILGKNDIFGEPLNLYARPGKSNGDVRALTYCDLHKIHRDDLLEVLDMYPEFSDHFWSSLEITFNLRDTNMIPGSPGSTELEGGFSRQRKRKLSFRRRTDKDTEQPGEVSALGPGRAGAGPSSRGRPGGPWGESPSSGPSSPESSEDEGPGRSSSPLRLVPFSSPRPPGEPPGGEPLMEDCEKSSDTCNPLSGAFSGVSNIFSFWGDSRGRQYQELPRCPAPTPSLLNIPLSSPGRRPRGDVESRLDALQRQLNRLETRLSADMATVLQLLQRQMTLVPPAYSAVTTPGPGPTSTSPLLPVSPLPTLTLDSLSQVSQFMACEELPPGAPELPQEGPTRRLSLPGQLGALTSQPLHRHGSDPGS

Structure (SMILES)	hERG current change (%, negative = inhibition) at 1uM [%]
Cc1cc(NCc2ccccn2)n2ncc(-c3ccc(Cl)cc3)c2n1	12.2
CCOc1ccc(C(=O)N[C@H](C(=O)Nc2cccc(S(=O)(=O)N3CCCCC3)c2)C(C)C)cc1	7.45
O=C(O)CN1CCN(CC(=O)O)CCN(CC(=O)O)CCN(CC(=O)O)CC1	9.32
Cl.c1ccc(C(OCCN2CCNCC2)c2ccccc2)cc1	4.05
OC(COCC1CC=CCC1)Cn1cnc2ccccc21 (stereo not drawn)	3.82
Cc1cc(OCCCCOc2ccc(S(N)(=O)=O)c(C)c2)ccc1S(N)(=O)=O	12.7
CN(C)CCCN(C(=O)COc1ccc(Cl)cc1)c1nc2c(F)cccc2s1.Cl	-16.9
Cc1cc(Br)ccc1SCC(=O)OCC(=O)NC1CC1	14
O=c1cc(-c2ccccc2)n(S(=O)(=O)c2ccccc2)o1	11.1
COC(=O)CCCC(=O)N1CCC(CO)(CCc2ccccc2)CC1	-0.837
O=C(Nc1c2c(nn1-c1ccc(F)cc1)CS(=O)C2)c1ccc(S(=O)(=O)N2CCOCC2)cc1 (stereo not drawn)	11.7
CC(=O)Nc1ccc(/C=N/NS(=O)(=O)c2cc(C)ccc2C)cc1	-16.3
Cc1noc(C)c1S(=O)(=O)NCC(=O)O	14.3
COc1cc(C(=O)Nc2cnc(NC(=O)C(C)C)cc2C)cc(OC)c1OC	17.7
Cc1cc(NC(=O)COC(=O)[C@@H](NS(=O)(=O)c2ccccc2)C(C)C)no1	8.91
Cc1cscc1NC(=O)/C=C/C(=O)O	5.26
O=C(N/N=C/c1ccco1)C1CC1(c1ccccc1)c1ccccc1 (stereo not drawn)	2.04
CCCCCOc1ccc(C(=O)NC(CCC)C(=O)O)cc1 (stereo not drawn)	-0.623
CNC(=O)c1ccccc1NC(=O)C1CC(=O)N(C(C)C)C1 (stereo not drawn)	10.8
COc1ccc(C(=O)Nc2nc(C)cc(C)n2)cc1[N+](=O)[O-]	8.54
COc1cc(NC(=O)CN(C)Cc2ccc(OC(F)F)cc2)c(C)cc1[N+](=O)[O-]	0.819
Cc1cc(NC(=O)COc2coc(CN3CCN(c4ccc(F)cc4)CC3)cc2=O)no1	-7.93
CC1(C)CCC(=O)N2CC[C@H]3C[C@H](OC(=O)Nc4ccc5c(c4)OCO5)C[C@@H]1[C@H]32	11.1
COCCn1c(NCc2ccc(C)cc2)nc2c1c(=O)[nH]c(=O)n2C	6.56
